Laboratory results from PubChem BioAssay AID1745853 (National Center for Advancing Translational Sciences (NCATS), 2022).
The list shows a part of the results. The main result of the screen is listed elsewhere. These columns were measured beside it and carry no call.

Assays:
Assay in all cases: Primary Screen for Target Class Profiling of Small Molecule Inhibitors of Methyltransferases
[1] = target: Glycine N-methyltransferase (Homo sapiens) (UniProt Q14749); settings: purified enzyme, MTase-Glo SAH luminescence; measured here: GNMT inhibition; at 40 µM; stronger effect = lower value
Summary of the method: (§1)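 Each enzyme was reacted with SAM and its substrate, with compounds tested once at 40 uM; SAH formed was read by MTase-Glo luminescence.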

[2] = target: Guanidinoacetate N-methyltransferase (Homo sapiens) (UniProt Q14353); settings: purified enzyme, MTase-Glo SAH luminescence; measured here: GAMT inhibition; at 40 µM; stronger effect = lower value
Summary of the method: as §1

[3] = target: Histamine N-methyltransferase (Homo sapiens) (UniProt P50135); settings: purified enzyme, MTase-Glo SAH luminescence; measured here: HNMT inhibition; at 40 µM; stronger effect = lower value
Summary of the method: as §1

[4] = target: Nicotinamide N-methyltransferase (Homo sapiens) (UniProt P40261); settings: purified enzyme, MTase-Glo SAH luminescence; measured here: NNMT inhibition; at 40 µM; stronger effect = lower value
Summary of the method: as §1

[5] = target: Phenylethanolamine N-methyltransferase (Homo sapiens) (UniProt P11086); settings: purified enzyme, MTase-Glo SAH luminescence; measured here: PNMT inhibition; at 40 µM; stronger effect = lower value
Summary of the method: as §1
% is scaled to controls: 0 for no effect and ±100 for the full control effect.

SMILES	activity change, negative = inhibition [1] [%]	activity change, negative = inhibition [2] [%]	activity change, negative = inhibition [3] [%]	activity change, negative = inhibition [4] [%]	activity change, negative = inhibition [5] [%]
C#CCOC(=O)C1=CCCN(C)C1	-3.33	5.84	0.093	-2.17	7.91
OCc1nnc2n1-c1ccc(Cl)cc1C(c1ccccc1Cl)=NC2	2.03	7.3	5.58	-9.87	3.28
NC(=O)CN1C(=O)CO[C@H]2CN(Cc3ccccn3)C[C@H]21	-0.931	1.72	1.18	-2.95	-3.44
Cc1cc(CN2CCC23Cc2ccccc2NC3=O)no1 (stereo not drawn)	-7.1	-6.17	-3.57	-9.36	-11
COCCN1C(=O)CS(=O)(=O)C12CCNCC2	-3.71	-5.88	-2.44	-7.85	-1.59
CNCC(O)c1ccc(O)cc1 (stereo not drawn)	3.65	9.47	1.67	-2.24	-26.2
Cc1nc(-c2cccs2)cc([C@H]2CN3CC[C@H]2C[C@@H]3COC(=O)Nc2ccc(C(C)C)cc2)n1	-9.64	-11.2	-15.3	-28.5	-17.9
N#Cc1cn([C@@H]2O[C@H](CO)[C@H](O)[C@@H]2O)c2ncnc(N)c12	-101	-102	-98	-103	-101
CCOc1ccccc1-n1c(C(C)N2CCN(C(=O)COc3ccc(Cl)cc3)CC2)nc2ccccc2c1=O (stereo not drawn)	0.928	2.72	10.5	-21.9	-2.15
c1ccc(CCCN2CCN(CCOC(c3ccccc3)c3ccccc3)CC2)cc1	-14.8	3.54	-3.76	-9.12	4.04
COc1ccc(C2c3cccn3-c3ccccc3CN2C(=O)Nc2ccc(C)c(F)c2)cc1 (stereo not drawn)	9.47	0	1.58	3.3	5.66
O=C(Nc1ccc(F)cc1F)N1Cc2ccccc2-n2cccc2C1c1ccccc1 (stereo not drawn)	6.26	4.33	1.26	-0.972	7.92
CSc1ccc(C2c3cccn3-c3ccccc3CN2C(=O)NCCC(C)C)cc1 (stereo not drawn)	-4.08	0	-1.09	1.95	3.85
COc1cccc(CNC(=O)N2Cc3ccccc3-n3cccc3C2C)c1 (stereo not drawn)	8.86	3.59	1.55	-6.79	8.06
CCOc1ccc(NC(=O)N2Cc3ccccc3-n3cccc3C2c2ccccc2C)cc1 (stereo not drawn)	11.7	0	7.32	6.77	7.44
Cc1ccc(NC(=O)N2Cc3ccccc3-n3cccc3C2c2ccccc2C)c(C)c1 (stereo not drawn)	7.66	0	3.25	1.93	2.89
CN(CCc1ccccn1)C[C@H]1CN2CC[C@H]1C[C@@H]2CNC(=O)c1ccco1	-0.945	-1.45	-7.1	0.217	2.23
COc1cc(C)[nH]c(=O)c1CNC(=O)c1c(C)n([C@H](C)C2CCOCC2)c2ccccc12	1.9	5.93	12.3	-12.3	2.34
C=C1[C@@H](C)C2[C@H](Cc3ccccc3)NC(=O)[C@@]23C(/C=C/C[C@H](C)C[C@@](C)(O)/C=C/[C@@H]3OC(C)=O)[C@@H]1O (stereo partly drawn)	-1.72	-5.93	-0.951	-15.8	-2.15
CCN(C1CCOCC1)C1CNC1	-1.17	-1.41	-2.99	-3.64	-6.74
CN1C(=O)CCS(=O)(=O)C1c1ccc(Cl)cc1 (stereo not drawn)	-6.84	3.28	-2.52	-6.02	4.93
Cc1cccc(C2c3cccn3-c3ccccc3CN2C(=O)Nc2cc(C)ccc2C)c1 (stereo not drawn)	6.21	-3.37	-0.803	-7.16	-2.93

SMILES	activity change, negative = inhibition [1] [%]	activity change, negative = inhibition [2] [%]	activity change, negative = inhibition [3] [%]	activity change, negative = inhibition [4] [%]	activity change, negative = inhibition [5] [%]
Cc1cccc(C2c3cccn3-c3ccccc3CN2C(=O)NC2CCCC2)c1 (stereo not drawn)	8.32	0	5.74	4.03	4.61
C=C[C@H]1CN2CCC1C[C@H]2[C@H](O)c1ccnc2ccccc12 (stereo partly drawn)	6.08		-4.96		
CCOC(=O)c1cccc(NC(=O)N2Cc3ccccc3-n3cccc3C2c2ccccc2C)c1 (stereo not drawn)	6.63	0	1.46	4.05	2.02
O=P1(N(CCCl)CCCl)NCCCO1 (stereo not drawn)	-11.4	4.12	1.4	-3.78	2.98
O=C(O)Cc1cnc[nH]1	0.319	8.33	1.51	1.11	6.25
CC(C)C1c2cccn2-c2ccccc2CN1C(=O)Nc1cccc(Br)c1 (stereo not drawn)	1.41	2.06	9.64	6.6	7.59
CN1C2CCC1CC(OC(=O)c1cc(Cl)cc(Cl)c1)C2 (stereo not drawn)	-0.816	8.66	4.79	-6.69	1.79
COc1ccc(C2c3cccn3-c3ccccc3CN2C(=O)Nc2ccccc2)cc1OC (stereo not drawn)	8.55	0.371	6.09	1	7.22
Cc1cccc(C2c3cccn3-c3ccccc3CN2C(=O)Nc2cc(Cl)ccc2C)c1 (stereo not drawn)	3.16	0.553	-0.117	-5.33	-1.33
CCOC(=O)Cc1ccc(NC(=O)N2Cc3ccccc3-n3cccc3C2c2ccc(OC)cc2)cc1 (stereo not drawn)	4.58	0.052	-2.42	-4.29	1.17
CCC1c2cccn2-c2ccccc2CN1C(=O)Nc1ccc(OC)cc1OC (stereo not drawn)	-5.69	1.71	-23.9	-12.9	-4.16
N#Cc1cncc(N2CC3CCC(C2)N3CC(F)(F)F)c1	-4.32	-2.17	-1.06	-6.88	-3.14
CCOc1ccc(C2c3cccn3-c3ccccc3CN2C(=O)Nc2ccccc2OCC)cc1 (stereo not drawn)	-2.54	0	5.21	2.29	0.342
Cc1cccc(NC(=O)N2Cc3ccccc3-n3cccc3C2c2ccccc2Cl)c1C (stereo not drawn)	7.01	1.05	0.195	-5.37	0.001
COc1ccc(-c2cc([C@H]3CN4CC[C@H]3C[C@@H]4COC(=O)Nc3ccccc3)n(C)n2)cc1	-19.7	-22.6	-31.2	-21.2	-13.7
N[C@H]1[C@H](O)[C@@H](N2CCCCC2)[C@@H]2OC[C@H]1O2	-1.36	-6.97	-1.01	-9.25	0.172
COc1cccc(CNC(=O)N2Cc3ccccc3-n3cccc3C2c2cc(F)cc(F)c2)c1 (stereo not drawn)	6.41	0	-0.454	-1.23	5.97
O=C(Nc1cccc(Br)c1)N1Cc2ccccc2-n2cccc2C1c1ccccc1 (stereo not drawn)	7.6	0.719	4.95	0.917	-1.41
O=C(O)[C@@H]1CCN1	2.72	9.51	7.56	-5.18	0.735
CCOC(=O)c1ccccc1NC(=O)N1Cc2ccccc2-n2cccc2C1C (stereo not drawn)	8.69	1.13	9.03	6.07	8.29
CCc1ccc(C2c3cccn3-c3ccccc3CN2C(=O)NC2CCCC2)cc1 (stereo not drawn)	7.06	2.12	3.37	0.215	4.87
Cc1cccc(NC(=O)N2Cc3ccccc3-n3cccc3C2C(C)C)c1C (stereo not drawn)	-1.24	0	5.66	2.62	3.83

SMILES	activity change, negative = inhibition [1] [%]	activity change, negative = inhibition [2] [%]	activity change, negative = inhibition [3] [%]	activity change, negative = inhibition [4] [%]	activity change, negative = inhibition [5] [%]
CO[C@@H]1[C@H](O)[C@@H](O[C@@H]2C[C@H]3CC[C@@H]4C(CC[C@]5(C)[C@@H](C6=CC(=O)OC6)CC[C@]45O)[C@@]3(C)[C@H](O)C2)O[C@H](C)[C@@H]1O (stereo partly drawn)	-2.08	-2.7	5.17	-12.8	-6.88
CCCN1CCO[C@@H]2c3cc(O)ccc3OC[C@H]21	-8.11	5.4	1.19	-4.12	7.02
CCC1c2cccn2-c2ccccc2CN1C(=O)Nc1ccc(OC)c(OC)c1 (stereo not drawn)	2.37	0.744	-2.75	0.059	5.63
Cc1ccc(-n2nccn2)c(C(=O)N2CCN(c3nc4cc(Cl)ccc4o3)CC[C@H]2C)c1		-0.293		-24.2	-2.33
COc1ccc2c(c1OC)C(=O)O[C@H]2[C@@H]1c2cc3c(cc2CCN1C)OCO3	-1.3	8.58	3.53	-6.87	4.73
CN(C(=O)Cc1ccccc1)[C@H](CN1CCCC1)c1ccccc1		-7.96		-20.2	-3.08
CC1c2cccn2-c2ccccc2CN1C(=O)Nc1ccccc1Br (stereo not drawn)	3.43	2.96	5.21	0.281	9.18
COc1ccc(C2c3cccn3-c3ccccc3CN2C(=O)NCc2ccccc2)cc1OC (stereo not drawn)	6.62	0.798	0.27	-1.1	4.47
O=C(Nc1ccccc1Cl)N1Cc2ccccc2-n2cccc2C1c1ccccc1 (stereo not drawn)	5.18	4.35	-2.61	-2.84	2.52
O=C(Nc1ccccc1)N1Cc2ccccc2-n2cccc2C1c1ccccc1 (stereo not drawn)	6.84	0.564	-2.41	-5.08	-0.876
CN(C)c1ccc(C2c3cccn3-c3ccccc3CN2C(=O)NCCc2ccccc2)cc1 (stereo not drawn)	7.3	0.741	-2.21	2.57	6.64
COC(=O)CCNC(=O)N1Cc2ccccc2-n2cccc2C1c1ccc(SC)cc1 (stereo not drawn)	-2.08	0	2.88	-9.55	3.59
CSc1ccc(C2c3cccn3-c3ccccc3CN2C(=O)Nc2cccc(C(F)(F)F)c2)cc1 (stereo not drawn)	4.06	0	8.02	11.2	9.84
CCCNC(=O)N1Cc2ccccc2-n2cccc2C1c1ccc(Cl)cc1 (stereo not drawn)	1.84	0	0.961	-11.2	5.62
CCOCCCNC(=O)N1Cc2ccccc2-n2cccc2C1c1ccc(CC)cc1 (stereo not drawn)	3.17	5.92	-2.37	-8.75	2.14
c1ccc2cc(CC3=NCCN3)ccc2c1	2.69	13.4	-19.6	-0.018	5.49
Cc1cccc(C2c3cccn3-c3ccccc3CN2C(=O)Nc2cccc(Br)c2)c1 (stereo not drawn)	10.4	0	7.92	7.47	5.8
CCC1CN2CCC3(C(=O)Nc4cccc(O)c43)C2CC1/C(=C/OC)C(=O)OC (stereo not drawn)	-1.53	-5.01	3.72	-15.1	-12.6
CC(C)(C)[C@]1(O)C[C@@H]2OC(=O)C[C@@]23C(=O)O[C@@H]2OC(=O)[C@@H](O)[C@]213	1.18	2.16	6.83	-8.32	-2.5
CC[C@H]1C[C@@H]2CC[C@@H](O2)[C@@H](C)C(=O)O[C@H](CC)C[C@H]2CC[C@H](O2)[C@H](C)C(=O)O[C@@H](C)C[C@@H]2CC[C@@H](O2)[C@@H](C)C(=O)O[C@H](CC)C[C@H]2CC[C@H](O2)[C@H](C)C(=O)O1	-1.52	-4.76	8.05	-13.5	-1.61
